# Several values for one entry are separate records, joined by “and”; a condition that tells them apart may be missing. Equal entries are not always repeated. In all, about 94,000 compounds went through this assay and about 4,000 (4.3%) were called active. The inconclusive results got no clear call from the source; some entries with a clear call stand among them for comparison. Calls follow the shape of the dose curve; as a rule, active = well fitted inhibition curve with a large enough effect; inconclusive = small, poorly fitted or top-dose-only effect; inactive = no such curve, though single readings can be large or run the other way. Where the call is inconclusive, the potency comes from a doubtful curve fit.
# Experiment: Cytotoxic Profiling in NIH 3T3 Cell Line of Diverse Libraries Using Quantitative High-Throughput Screening; also: nearly all actives have a fitted effect of over 55% in size
# Conditions: NIH 3T3 viability, CellTiter-Glo ATP luminescence, 48-72 h; series mostly up to 96.7 µM
# In short: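 Mouse fibroblast NIH 3T3 cells, 400 per well, received compound via pintool and were incubated for 48 or 72 hr prior to CellTiter-Glo ATP luminescence measurement.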
# Potency is read from the fitted curve at half-maximal effect; tags tell the direction and shape of the fitted curve.
row,Structure (SMILES),Potency
1,CC(C)Nc1ccc(-c2ccc(S(=O)(=O)NC(C)(C)C)cc2)nn1,inactive
2,Cc1cccc(OCC2CCCN(C(=O)c3sc(C(C)C)nc3C)C2)c1 (stereo not given),"inconclusive: 39.8 µM [inhibitor, partial curve]"
3,CCCOc1ccc(C(=O)N2C[C@H](c3cccc(OC)c3)[C@@H](N)C2)cc1Cl,"inconclusive: 50.1 µM [inhibitor, partial curve, poor fit]"
4,COC[C@]1(O)CCN(C(=O)C2CCN(CC(N)=O)CC2)CC1(C)C,inactive
5,O=C(c1ccccc1F)N1CCCC(C(=O)N2CCC(N3CCOC3=O)CC2)C1 (stereo not given),inactive
6,Cc1cnc(C2CCC2)n1CCN,inactive
7,CN(C)C(=O)NC1CCN(C(=O)c2ccc(-c3cccs3)cc2)CC1,"inconclusive: 50.1 µM [inhibitor, partial curve, poor fit]"
8,CC1CCN(C(=O)C2(c3ccc(NC(=O)C4CC4)cc3)CCCCC2)CC1,"inconclusive: 70.8 µM [inhibitor, single point]"
9,COc1cccc(-c2c(C(=O)NCCN3CCOCC3)nc3sccn23)c1,"inconclusive: 50.1 µM [inhibitor, partial curve, poor fit]"
10,O=C1CN(Cc2cccc(-c3cccs3)c2)CCN1c1ccc(Cl)nn1,"inconclusive: 44.7 µM [inhibitor, partial curve, poor fit] and inconclusive: 17.8 µM [inhibitor, full curve]"
11,Cc1nn2c(c1-c1ccccc1[S+](C)(=O)[O-])N(C(=O)COc1ccccc1)CCC2,"inconclusive: 112 µM [inhibitor, partial curve, poor fit]"
12,O=C(c1ccccc1)N1CCCN(Cc2ccc3c(c2)OCO3)c2ccccc21,"inconclusive: 50.1 µM [inhibitor, partial curve, poor fit]"
13,CCN1Cc2nc(OC)c(CNC(=O)C3(C)CCCCO3)cc2C1=O (stereo not given),inactive
14,Cc1ccc(-c2ccccc2CN2CCN([S+](=O)([O-])c3ccccc3)CC2)cc1Cl,"inconclusive: 39.8 µM [inhibitor, partial curve, poor fit]"
15,CCCN1CCCC2(Cc3ccccc3CN(C(=O)Cc3ccc(OC)cc3)C2)C1 (stereo not given),inactive
16,CC1CCCCN1C(=O)C1COC2(CCN(C(=O)c3ccco3)CC2)N1C(=O)c1ccccc1 (stereo not given),inactive
17,COc1ccc(Cl)cc1NC(=O)c1c(OC)cc(=O)n2c1CCCC2,"inconclusive: 50.1 µM [inhibitor, single point]"
18,O=C1CCN(C(=O)C2(c3ccccc3)CC2)CCCOCCN1,"inconclusive: 39.8 µM [inhibitor, partial curve, poor fit]"
19,Cc1ccc(C2Cn3cnc(C(=O)N4CCC(C(=O)NCc5cc(F)ccc5F)CC4)c3CO2)cc1 (stereo not given),inactive
20,Cc1noc(C)c1-c1cc2c(c(-c3ccc([S+](C)(=O)[O-])cc3)c1)C(=O)N(C)C2,"inconclusive: 89.1 µM [inhibitor, partial curve, poor fit]"
21,O=C(c1ccc(C2CCCNC2)cc1)N(Cc1ccccn1)C1CCCCC1 (stereo not given),inactive
22,COCCC(=O)N1CCC(N2C(=O)C(O)C23CCCCC3)CC1 (stereo not given),inactive

row,Structure (SMILES),Potency
1,O=C1NC(=NC2CCCC2)C2(CCN(CC3CCCCC3)C2)N1c1cc(F)cc(F)c1 (stereo not given),"inconclusive: 35.5 µM [inhibitor, partial curve, poor fit]"
2,CCN(CC)c1cc(CCC(=O)N(C)Cc2ccccc2)ccn1,"inconclusive: 50.1 µM [inhibitor, partial curve, poor fit]"
3,O=C(c1ccc2ccccc2n1)N1CCC2(CC1)CC(Cc1cccc(F)c1)CCO2 (stereo not given),"inconclusive: 35.5 µM [inhibitor, partial curve, poor fit]"
4,Cc1nn2c(c1-c1ccccc1OCc1ccccc1)N(Cc1ccccc1O)CCC2,"inconclusive: 50.1 µM [inhibitor, partial curve, poor fit]"
5,CCOc1cc(CN2CCOc3ccc(C(=O)NCc4ccc(C)cc4)cc3C2)ccc1O,"inconclusive: 70.8 µM [inhibitor, single point]"
6,CCCn1c(C)cnc1CCNC(=O)C1(c2ccc(OC)cc2)CC1,inactive
7,Cc1ccccc1CN1CCOc2cc([S+](=O)([O-])Nc3nncs3)ccc2C1,"inconclusive: 17.8 µM [inhibitor, full curve, poor fit]"
8,CCN(Cc1nc2ccccc2[nH]1)CC1CCCN(CCc2cccc(F)c2)C1 (stereo not given),"inconclusive: 50.1 µM [inhibitor, partial curve, poor fit]"
9,COc1ccc(Nc2ccnc(N3CCCC(C(=O)NC(C)C)C3)n2)cc1 (stereo not given),"inconclusive: 39.8 µM [inhibitor, partial curve, poor fit]"
10,CN(C)S(=O)(=O)N1CCC(C(=O)Nc2ccc(Oc3cccnc3)cc2)CC1,"inconclusive: 50.1 µM [inhibitor, partial curve]"
11,C[C@@H](NC(=O)N1CCOC[C@H]1c1ncc(-c2ccc(Cl)cc2)[nH]1)c1ccccc1,active: 100 µM
12,O=C(Nc1ccc(F)c(Cl)c1)c1cc2n(n1)CC(c1ccc(Cl)cc1)OC2 (stereo not given),"inconclusive: 50.1 µM [inhibitor, partial curve, poor fit]"
13,COc1cc(OC)cc(-c2onc(C)c2C(=O)NC2Cc3ccccc3C2)c1,"inconclusive: 44.7 µM [inhibitor, partial curve, poor fit]"
14,COc1ccc(C(=O)NC[C@H]2O[C@@H](CO)[C@@H](O)[C@H]2N2CCN(c3cccc(C(F)(F)F)c3)CC2)cc1,"inconclusive: 89.1 µM [inhibitor, single point]"
15,O[C@H]1CC[C@@H](Cc2cc(-c3ccccn3)on2)O[C@@H]1CN(Cc1ccccc1)Cc1ccccc1,"inconclusive: 35.5 µM [inhibitor, partial curve, poor fit]"
16,O=C1CC(c2ccccc2)N(C(=O)CNC(=O)c2cc3ccccc3[nH]2)CCCCCN1 (stereo not given),inactive
17,COc1cccc(-c2cccc(C(=O)N3CCCC3C(=O)N3CCC(C#N)CC3)c2)c1 (stereo not given),inactive
18,CSc1ccc(C(=O)N2CC(=O)NCC(C)(C)C2)cc1,"inconclusive: 79.4 µM [inhibitor, partial curve, poor fit]"
19,Cc1nn(-c2ccc(C(C)C)cc2)c(C)c1[C@@H]1C=C[C@@H](NC(=O)COCC(=O)O)C1,"inconclusive: 126 µM [inhibitor, single point]"
20,COC1C(=O)N(C2CCN(C(=O)c3cnn(C)c3)CC2)C12CCOCC2 (stereo not given),inactive
21,COc1cccc(CC(=O)N2Cc3ccccc3OC3(CCN(C)CC3)C2)c1,inactive
22,CC(C)Oc1ccc2c(NC(=O)c3ccc(=O)n(C)n3)nn(CC(F)(F)F)c2c1,inactive

row,Structure (SMILES),Potency
1,COc1ccc(CNC(=O)c2cc(-c3ccc(C(F)(F)F)cc3)nc3c2cnn3C)cc1,"inconclusive: 14.1 µM [inhibitor, full curve]"
2,COc1ccc(Nc2cnc3ccc(-c4ccc(OC)c(OC)c4)nn23)cc1OC,active: 20 µM
3,CC(C)(C)C(=O)N1CCc2nc(-c3ccccc3)nc(-c3ccc(Cl)cc3)c2C1,inactive
4,Cc1cccc(-c2noc(CCC(=O)N3CCCC4(CCNCC4)CC3)n2)c1,"inconclusive: 56.2 µM [inhibitor, partial curve, poor fit]"
5,COc1ccc(-c2cc(N3CCCC(NC(=O)c4ccc(C(F)(F)F)cc4)C3)n[nH]2)cc1 (stereo not given),active: 44.7 µM
6,CNC(=O)c1cc(C2CC2)nc2onc(C3CCN(C(=O)Cc4ccc(F)cc4)CC3)c12,"inconclusive: 31.6 µM [inhibitor, partial curve]"
7,COc1ccc(C(=O)Nc2ccc3c(c2)CN(Cc2cccc(OC)c2OC)C(=O)CO3)cc1OC,inactive
8,COc1ccc(-c2cc(C[C@H]3CNCC[C@H]3CC(=O)NC(C)C)no2)cc1,inactive
9,CCc1nc2c(c(-c3ccc(Cl)cc3)n1)CN(C(C)=O)CC2,inactive
10,COc1cccc(CN2Cc3c(CN(C)Cc4ccccc4)nnn3CCC2=O)c1,"inconclusive: 112 µM [inhibitor, single point]"
11,O=C1Nc2ccc(-c3ccccc3F)cc2C(=O)N2CCN(C(=O)COc3ccccc3)C[C@H]12,"inconclusive: 79.4 µM [inhibitor, partial curve, poor fit]"
12,Cc1noc(C)c1-c1cnc2[nH]cc(CC(=O)NCc3cccnc3)c2c1,active: 31.6 µM
13,CC(C)N1CCC2(CC1)CN(C(=O)C1(c3ccccc3)CC1)Cc1ccccc1O2,"inconclusive: 39.8 µM [inhibitor, partial curve, poor fit]"
14,Cn1ncc2c(C(=O)NCC(F)(F)F)cc(-c3ccc(C(F)(F)F)cc3)nc21,inactive
15,O=C1CC(c2noc(-c3cccc(F)c3)n2)CN1c1ccc(F)c(Cl)c1 (stereo not given),"inconclusive: 44.7 µM [inhibitor, partial curve]"
16,COc1ccc2cc(C3CN(c4ncnc(C)c4C)CCO3)ccc2c1 (stereo not given),"inconclusive: 14.1 µM [inhibitor, partial curve, poor fit]"
17,COc1ccc(CN2C[C@@H](F)[C@@H](OCc3nc4ccncc4[nH]3)C2)cc1,"inconclusive: 44.7 µM [inhibitor, partial curve, poor fit]"
18,O=C(CO)NC1CC(=O)N(Cc2ccccc2C(F)(F)F)C1 (stereo not given),inactive
19,O=C(Cc1ccccc1)N1CCCC2(CC(c3ccccn3)=NO2)C1 (stereo not given),inactive
20,OCCOc1ccc(-c2c(-c3ccccc3)ncn2CCc2cccnc2)cc1,"inconclusive: 50.1 µM [inhibitor, partial curve, poor fit]"
21,CC(C)NS(=O)(=O)c1cc(C(=O)O)cc(-c2ccc(C(=O)N(C)C)cc2)c1,inactive
